In all, about 16,000 sequences were measured (“Z-score”: median about -0.37, highest 2% from about 3.2 on). Some of the results follow.
system: RBM10 RRM1-ZnF (GST-tagged construct); test: RNAcompete 7-mer binding Z-score; higher = stronger binding preference
Procedure, shortened: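 A designed pool of 241 399 RNAs, each up to 41 nt and transcribed from microarray-derived DNA templates, was used at 1.5 nmol with 20 pmol of GST-tagged RBM10 constructs. The mixture, in 1 ml Hepes pH 7.8 buffer with KCl, NaCl, glycerol, DTT, BSA and glutathione Sepharose beads, was held 30 min at 4°C and then washed four times for 2 min at 4°C. Bound RNA was read out by microarray hybridisation, and enrichment of each heptamer motif was scored as a one-sided Z-score over the probes carrying it.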

Row | Sequence | RNAcompete 7-mer binding Z-score
1 | CCAGCUU | -0.711
2 | AUAUUGU | -0.402
3 | AGCAAGG | 2.66
4 | UCGCUUG | -0.743
5 | AUCCCAA | -0.802
6 | CAUAAGC | -0.714
7 | CUGACCU | -0.932
8 | UCAAACC | -0.86
9 | CAGCUCG | -0.704
10 | CUCGUGU | -0.526
11 | GCAUCAA | -0.464
12 | UUGUUAG | -0.0804
13 | GUGUUCA | -0.22
14 | CCCGCGU | -0.444
15 | CGAUCGA | -0.262
16 | CGGCUAA | -0.201
17 | UUAGCUC | -0.678
18 | UCAAAGA | -0.399
19 | GCACUAA | -0.34
20 | UCGUGUA | -0.22
21 | CCGCGCU | -0.496
22 | UCCUUUG | -0.876
23 | AUUGAUU | -0.373

Row | Sequence | RNAcompete 7-mer binding Z-score
24 | UCCGCAC | -0.714
25 | CACGCUU | -0.698
26 | AUCAUGA | -0.435
27 | UCACCUA | -0.746
28 | UUUCCUC | -0.824
29 | CGAUCCG | -0.629
30 | GGCGAAA | 0.829
31 | UCGAACC | -0.668
32 | AAAAAUG | 0.069
33 | CGGUGGC | 1.14
34 | CGGAGUU | 0.387
35 | AAAAAGC | -0.214
36 | UUUACAC | -0.792
37 | AGGAGCC | 0.267
38 | CAGCCAC | -0.561
39 | CAUACGU | -0.415
40 | GAGGUUC | 0.238
41 | AGUAAUG | 0.368
42 | CGUUGCG | 0.131
43 | ACGCAGA | 0.199
44 | ACACAAG | -0.246
45 | CAGCACC | -0.578
46 | AACAACU | -0.483

Row | Sequence | RNAcompete 7-mer binding Z-score
47 | CUAGCGG | 0.417
48 | UCCCUAG | -0.574
49 | UCAACUU | -0.86
50 | AAAGCCG | -0.561
51 | UUGCGAU | -0.405
52 | GUUAUGA | 0.202
53 | GCUAGAA | 0.0918
54 | CGGACGC | 0.251
55 | UAGUCUA | -0.383
56 | ACAUGCG | -0.272
57 | UUACUAA | -0.571
58 | CGACCUU | -1.02
59 | CACCCCC | -0.301
60 | ACCGGAU | -0.272
61 | CAGAAUG | 0.378
62 | UUUCAGU | -0.561
63 | GCCCUUG | -0.607
64 | AAGGGGA | 4.47
65 | AUGAGCC | -0.318
66 | CUAUCUU | -0.733
67 | AGGCCUU | -0.743
68 | UCAUCUU | -0.893
69 | UCUCAGG | -0.0804

Row | Sequence | RNAcompete 7-mer binding Z-score
70 | GACGUUG | 0.0625
71 | CUACCUU | -0.906
72 | CUCAUGG | -0.103
73 | AGUCCAG | -0.201
74 | UAAUGAC | -0.305
75 | CGGGCUC | 0.209
76 | UGUCACG | -0.376
77 | GUUGAUA | 0.511
78 | UAAUAUC | -0.477
79 | CCUGGCG | -0.0934
80 | UCCUGAU | -0.737
81 | UAGGAGC | 1.6
82 | UACUAGC | -0.591
83 | AUGAAUA | -0.00246
84 | GUCUCUA | -0.639
85 | CUUGCUG | -0.746
86 | UGUCGGG | 1.27
87 | UCGCCUA | -0.665
88 | CUGCCUC | -0.61
89 | CAGUUCU | -0.828
90 | UGCCACG | -0.435
91 | AUACAAG | 0.0268
92 | UUUGCAA | -0.587

— the supplement of paper PMC5499739
